# Results reported in publication PMC4336329 (PLoS ONE, 2015).
# Hit rate of the full screen: of about 310,000 compounds, about 14,000 (4.5%) showed an effect of 50% or more. The effect is printed as a negative number. Some of the results follow.
# Target: human ether-à-go-go-related gene (hERG) potassium channel (human, UniProt Q12809)
# Test: primary screen, population patch clamp on CHO cells stably expressing hERG
# 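Note: peak tail current of the secondary pulse compared with the same well before compound.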
# Sequence of human ether-à-go-go-related gene (hERG) potassium channel (Q12809 whole entry, looked up): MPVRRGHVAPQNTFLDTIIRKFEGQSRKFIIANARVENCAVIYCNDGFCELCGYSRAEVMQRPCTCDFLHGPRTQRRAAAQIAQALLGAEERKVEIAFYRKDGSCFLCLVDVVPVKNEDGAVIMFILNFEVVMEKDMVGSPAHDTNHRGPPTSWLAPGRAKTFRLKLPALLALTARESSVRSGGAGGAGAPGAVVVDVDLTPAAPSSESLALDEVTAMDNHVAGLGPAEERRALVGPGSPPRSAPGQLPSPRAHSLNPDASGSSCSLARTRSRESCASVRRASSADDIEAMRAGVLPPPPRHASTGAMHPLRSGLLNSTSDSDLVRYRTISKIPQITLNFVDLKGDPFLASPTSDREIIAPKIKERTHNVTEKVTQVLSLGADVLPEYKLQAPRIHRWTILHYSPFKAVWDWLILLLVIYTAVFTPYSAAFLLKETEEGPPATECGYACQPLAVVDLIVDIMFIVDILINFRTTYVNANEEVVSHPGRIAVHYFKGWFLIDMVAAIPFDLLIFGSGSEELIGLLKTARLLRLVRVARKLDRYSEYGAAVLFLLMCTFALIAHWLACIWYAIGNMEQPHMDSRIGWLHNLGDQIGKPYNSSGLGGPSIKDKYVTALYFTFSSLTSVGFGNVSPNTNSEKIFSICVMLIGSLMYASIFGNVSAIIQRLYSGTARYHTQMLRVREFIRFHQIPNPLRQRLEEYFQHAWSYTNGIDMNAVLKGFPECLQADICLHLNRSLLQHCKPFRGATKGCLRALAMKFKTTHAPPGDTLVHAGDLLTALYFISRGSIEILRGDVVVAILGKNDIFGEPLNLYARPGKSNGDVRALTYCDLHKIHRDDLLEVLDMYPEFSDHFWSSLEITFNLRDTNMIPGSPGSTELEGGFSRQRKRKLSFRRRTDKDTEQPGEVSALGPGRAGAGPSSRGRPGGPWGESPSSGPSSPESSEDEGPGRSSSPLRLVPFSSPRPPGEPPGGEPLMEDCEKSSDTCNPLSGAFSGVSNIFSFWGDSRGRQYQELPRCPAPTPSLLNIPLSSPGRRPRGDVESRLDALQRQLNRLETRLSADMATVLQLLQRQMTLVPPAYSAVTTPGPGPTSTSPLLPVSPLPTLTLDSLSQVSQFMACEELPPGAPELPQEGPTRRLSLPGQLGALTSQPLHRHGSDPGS
row,SMILES,"hERG current change (%, negative = inhibition) at 10uM"
1,O=C(COc1ccc(F)cc1)Nc1ccc2c(c1)OCCO2,5.63%
2,OC(Cn1cncn1)c1ccc(Cl)cc1Cl (centres unmarked),7.9%
3,CC(C)Nc1nc(NC(C)C)nc(N(C#N)CCOc2ccc(Cl)cc2Cl)n1,8.24%
4,CC1CCN(C(=O)CNC(=O)Cn2ccc3ccccc3c2=O)CC1,4.54%
5,[N-]=[N+]=NCCN1CCN(Cc2ccccc2)CCC1=O,-1.88%
6,O=C(CCc1ccc(S(=O)(=O)N2CCOCC2)cc1)Nc1ccc2c(c1)OCCO2,2.23%
7,CC(C)(C)NC(NC(=O)Cc1ccccc1)C(Cl)(Cl)Cl (centres unmarked),2.38%
8,COc1cc(OC)c(OC)cc1C=NCC1(c2ccccc2)CCCC1.Cl,12.1%
9,Cc1ccc(NC(=O)CN2C(=O)S/C(=C\c3cc(Cl)c(OCC(=O)O)c(Cl)c3)C2=O)cc1,19.3%
10,O=C(COC(=O)Cc1ccccc1F)NNC(=O)c1ccc([N+](=O)[O-])cc1,-6.19%
11,CCCCOc1ccc(C(=O)NCC(=O)NC2CCN(Cc3ccccc3)CC2)cc1,-25.6%
12,Cc1c(NC2=CC(=O)CC(C)(C)C2)ccc([N+](=O)[O-])c1C,-45.2%
13,O=C(O)c1ccc(N2CC3CC(C2)c2cccc(=O)n2C3)c(NC(=S)Nc2ccc(Br)cc2)c1 (centres unmarked),44.9%
14,O=C(O)c1cnn2c(C(F)F)cc(C(F)F)nc12,4.27%
15,O=Cc1ccc(-c2ccc(C(=O)O)cc2)o1,-9.01%
16,COC(=O)c1ccc(OC)c(CSc2nnc(COc3ccc(OC)cc3)o2)c1,-27.1%
17,O=C(Cn1cnc2ccccc2c1=O)N1CCN(c2ccc(F)cc2)CC1,-7.04%
18,CCC(C(=O)Nc1nc(C)cs1)c1ccccc1 (centres unmarked),15.8%
19,Cc1ccc(NC(=O)CSc2nnc(C3CC3)n2CC2CCCO2)c(C)c1 (centres unmarked),-9.98%
20,Cc1ccc(-c2nc3c(c(SCC(=O)N4CCOCC4)n2)COC(C)(C)C3)cc1,3.09%
21,Cc1ccccc1C(=O)N1CCN(c2ccc([N+](=O)[O-])c(N3CCOCC3)c2)CC1,-16.3%
22,Cc1ccc(CNC(=O)Cn2cccc2C(=O)c2ccccc2)cc1,1.89%
23,COc1ccc(CNC(=O)C2CCC(CNC(=O)[C@@H]3Cc4ccccc4CN3)CC2)cc1 (some centres unmarked),-0.911%

row,SMILES,"hERG current change (%, negative = inhibition) at 10uM"
1,Nn1c(=S)[nH]nc(Cc2ccc(O)cc2)c1=O,-18.7%
2,CCOC(=O)c1c(NC(=O)CN2CCCCC2)sc2c1CCCC2O (centres unmarked),-4.73%
3,Cc1ccc(N=C2NC(=O)/C(=C/c3cccn3C)S2)c(C)c1,13.2%
4,O=C(O)[C@@H]1Cc2c([nH]c3ccccc23)C2CCC(=O)N21 (some centres unmarked),20.7%
5,CS(=O)(=O)Nn1cnc2ccccc2c1=O,10.7%
6,CC1=CCC2C(=O)N(c3ccc(C(=O)Nc4ccccc4Cl)cc3)C(=O)C2C1 (centres unmarked),-0.468%
7,O=C(NC1CCCc2ccccc21)C1CCN(S(=O)(=O)c2cccc3nonc23)CC1 (centres unmarked),18.7%
8,O=C(C=C1CCN(c2ncc(C(F)(F)F)cc2Cl)CC1)NNC(=O)Nc1ccc(Cl)cc1,4.73%
9,Cl.N[C@@H](CO)c1nnc([C@H](Cc2ccc(O)cc2)NC(=O)C2CCNCC2)o1,3.11%
10,CCn1cc(Br)c(C(=O)Nc2cccc(Cl)c2)n1,-26.2%
11,Cn1c(Sc2ccc(C(F)(F)F)cc2[N+](=O)[O-])nnc1-c1ccccc1,-62.8%
12,Cc1cnc(NC(=O)CSc2nnc(Cc3ccccc3)n2C)s1,-12.1%
13,CCC(=O)Nc1ccc(C(=O)OCc2ccccc2)cc1,6.38%
14,O=C(COc1ccc(Cl)cc1Br)NC(=O)NCc1ccccc1,13.3%
15,NC(=O)c1ccc(NC(=O)CSc2nncn2-c2ccccc2)cc1,18.5%
16,CCCCOCCCNc1ncnc2c1[nH]c1ccccc12,-45.5%
17,Cc1ccc(-c2nnc3n2N=C(c2ccccc2)CS3)cc1,3.15%
18,C=CCc1cc(C)cc(C)c1OCCn1cncn1,-17.6%
19,CC(=O)NC12CC3CC(C1)CC(C(=O)OCC(=O)Nc1ncc(Cl)cc1Cl)(C3)C2,-37.8%
20,CC(C)N(C(=O)COC(=O)c1cccc(N(C)C)c1)c1ccccc1,2.4%
21,COc1cc(C2NC(=O)NC(C)=C2C(=O)OC2CCCC(C)C2)ccc1O (centres unmarked),-15.9%
22,N#Cc1ccccc1S(=O)(=O)N1CCN(C(=O)C2CCCC2)CC1,-5.7%
23,CCCNC(=O)NC(=O)CSc1nnc(-c2ccncc2)n1CC,11.6%

row,SMILES,"hERG current change (%, negative = inhibition) at 10uM"
1,CSCCC(NC(=O)C1CC1)c1nc2ccccc2[nH]1 (centres unmarked),9.28%
2,CC1CCN(C(=O)CN(Cc2ccccc2)S(C)(=O)=O)CC1,12.7%
3,CCOc1ccc(C(=O)NC(C(=O)NCc2cccnc2)C(C)C)cc1 (centres unmarked),-33.1%
4,CC1CN(S(=O)(=O)c2ccc(C(=O)NN3CCN(C)CC3)cc2)CC(C)O1 (centres unmarked),21.2%
5,O=C(N/N=C\c1ccc(-c2ccc(Cl)c(Cl)c2)o1)C(=O)N1CCCC1,-1.58%
6,Cc1ccc(S(=O)(=O)N2CCC(=O)N(C(COCc3ccc(C(F)(F)F)cc3)Cc3ccccc3)CC2)cc1 (centres unmarked),-0.044%
7,O=C(Nc1ccc(F)cc1)c1ccc(S(=O)(=O)N2CCOCC2)o1,-13.1%
8,COC(=O)/C=C1\NCCSC1=O,-6.99%
9,O=[N+]([O-])c1ccc(OS(=O)(=O)Cc2ccccc2)cc1,-32.2%
10,O=C(OCC(=O)N1CCCC1=O)c1cc2ccccc2o1,-4.34%
11,O=C(NC(=S)NC1CCCCC1)c1ccccc1,1.5%
12,O=C(CN1CCOCC1)Nc1c2c(nc3ccccc13)N(Cc1ccccc1)CC2.O=C(O)C(=O)O,-68.9%
13,C/C(=N\N1CCN(c2ccccc2)CC1)c1ccncc1,4.04%
14,O=C(O)CC1(CC(=O)Nc2ccccc2Br)CCCC1,0.928%
15,Cc1ccc(NC2CCCN(C(=O)c3cc4ncccn4n3)C2)cc1C (centres unmarked),11.8%
16,Cc1nc(S(=O)(=O)Cc2ccc(Cl)cc2)nc2c1CCC2,22.3%
17,COC(=O)C1=Cc2cc(OC)cc([N+](=O)[O-])c2OC1N1CCOCC1 (centres unmarked),-30.8%
18,O=c1oc(-c2ccccc2F)nc2c1cnn2-c1ccccc1,0.817%
19,Cc1ccc(NC(=O)/C(C#N)=C/c2cc(C)n(-c3ccc(N4CCOCC4)c([N+](=O)[O-])c3)c2C)c(C)c1,-10.7%
20,O=C1CCC(C(=O)OCc2nnc(-c3ccccc3)o2)=NN1,19.1%
21,O=C(Nc1ccc(N2CCOCC2)cc1)c1cccc2ccccc12,11.7%
22,Cc1ccc(C)n1-c1ccc(-c2nnc3n2CCCCC3)s1,-13.7%
23,CC1=NN(c2ccccc2)C(=O)/C1=C\c1cn(-c2ccccc2)nc1C,10.3%

row,SMILES,"hERG current change (%, negative = inhibition) at 10uM"
1,COCCCn1c(=N)c(C(N)=S)cc2c(=O)n3cccc(C)c3nc21,-84.3%
2,CCOC(=O)c1nn(-c2cccc(C)c2)c2nnc(Cc3ccc(C)cc3)c(=O)n12,-16.1%
3,Cc1ccc(NCC(=O)Nc2cccc(S(=O)(=O)N(C)C)c2)c(Cl)c1,-6.84%
4,Cc1ccc(N2C(=O)N(CC(=O)Nc3ccc(C)cc3Cl)C(=O)C2C)cc1 (centres unmarked),-16.5%
5,O=C(Nc1cccnc1)c1cc(-c2ccc3c(c2)OCO3)on1,2.67%
6,OCCOCCn1c(C2CCCN2c2nc(-c3ccc(F)cc3)cs2)nc2cc(C(F)(F)F)ccc21 (centres unmarked),-75.1%
7,CC(=O)c1ccc(OCCCC(=O)NC(C)c2ccc(S(N)(=O)=O)cc2)cc1 (centres unmarked),17.9%
8,Cc1noc(C)c1CSCC(=O)N(C)CC(=O)Nc1ccc(Cl)c(Cl)c1,-22.9%
9,COc1ccc(-c2nn(-c3ccccc3)cc2N)cc1,-3.82%
10,C=CCNC(=S)N/N=C/c1ccc(C)s1,9.8%
11,COc1ccccc1OCCNC(=O)c1cccc(S(=O)(=O)N2CCN(Cc3ccccc3)CC2)c1,-30.8%
12,CCc1ccc2oc(=O)cc(CN3CCOCC3)c2c1,-5.95%
13,Cc1ccc(-c2cn3c(n2)SCC3)cc1,8.36%
14,c1cc2c3c(cccc3c1)C(N1CCCCCC1)=N2,-67%
15,Cn1c(CC(=O)Nc2ccccc2)c(Sc2ccccc2)c2ccccc21,24.4%
16,COc1ccc(S(=O)(=O)N(C)c2ccc(C(=O)NC3CCCC3)cc2)cc1,-83.7%
17,COC(=O)c1ccc(CN2CCC(Oc3cccc(C(=O)N4CCCC4)c3)CC2)cc1,-50.8%
18,O=C(NCCCNC(=O)c1cc(Cl)ccc1Cl)c1ccccn1,-8.84%
19,O=C(NC(Cc1c[nH]c2ccccc12)C(=O)Nc1ccc(F)c([N+](=O)[O-])c1)c1cccs1 (centres unmarked),-22.1%
20,COc1ccccc1N(CC(N)=O)S(=O)(=O)c1ccc(C)cc1,0.766%
